Measured values reported in PubChem BioAssay AID686992 (Broad Institute, 2013).
In all, about 260,000 compounds went through this assay and about 960 (0.37%) were called active. Inconclusive means that the source gave no clear call. Such entries were picked first, then a sample of the others.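 The calls were made as follows: active = mean E-selectin-positive cell signal at least 10% of the positive control, reached in at least 60% of replicates, without over 20% cell loss; inconclusive = no rule given, readout overlaps actives, possibly toxicity-flagged; inactive = the rest, including those meeting only one limit.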

molecular target: E-selectin (Homo sapiens) (UniProt P16581); assay: inducers of endothelial E-selectin expression – imaging, HUVEC, immunofluorescence imaging, single point, primary screen (AID 686992); conditions: at 7.58 µM, stronger effect = higher value, normalized: neutral wells 0, TNF-alpha wells 100;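 also: signal is the percent of cells scored E-selectin positive by PE staining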
Chain of UniProt P16581 (P16581 whole entry, looked up): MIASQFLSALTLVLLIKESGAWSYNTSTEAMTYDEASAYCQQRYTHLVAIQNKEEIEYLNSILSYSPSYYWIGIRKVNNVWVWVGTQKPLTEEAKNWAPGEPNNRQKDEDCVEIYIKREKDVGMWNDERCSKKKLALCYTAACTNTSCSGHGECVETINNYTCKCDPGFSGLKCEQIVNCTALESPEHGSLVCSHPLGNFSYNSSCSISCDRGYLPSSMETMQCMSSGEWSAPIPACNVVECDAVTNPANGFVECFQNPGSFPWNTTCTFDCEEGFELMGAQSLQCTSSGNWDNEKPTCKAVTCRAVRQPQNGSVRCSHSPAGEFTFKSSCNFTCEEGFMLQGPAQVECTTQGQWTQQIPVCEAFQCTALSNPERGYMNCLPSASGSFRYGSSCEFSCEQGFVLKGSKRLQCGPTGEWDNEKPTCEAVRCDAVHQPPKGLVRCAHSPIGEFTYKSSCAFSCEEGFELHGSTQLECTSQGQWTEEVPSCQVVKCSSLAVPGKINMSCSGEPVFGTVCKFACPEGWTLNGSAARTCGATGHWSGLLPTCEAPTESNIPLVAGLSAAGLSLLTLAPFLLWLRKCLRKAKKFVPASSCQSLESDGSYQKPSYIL
In short: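 Assay system: HUVEC, human umbilical vein endothelial cells / Amount: 3,000 HUVEC/well / Controls: TNF-alpha positive control, DMSO neutral control / Compound dosing: single concentration / Medium: EGM-2 over gelatin coat / Evaluation: percent E-selectin-positive cells / Signal: immunofluorescence imaging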

Compound | activation
O=C(Nc1cccc(C(F)(F)F)c1)c1cc[n+]([O-])cc1 | active: 27.3%
COc1ccccc1OCCn1cc(C=O)c2ccccc21 | inconclusive: 38.1%
COc1ccc(NC(=O)N(C)C[C@@H]2Oc3ccc(NC(=O)Cc4ccccc4)cc3CC(=O)N([C@H](C)CO)C[C@@H]2C)cc1 | inactive: -7.19%
CC(C)Oc1ccc(C(=O)OCC(=O)c2ccc[nH]2)cc1 | inconclusive: 104%
COc1ccc(Br)cc1S(=O)(=O)Nc1ncn[nH]1 | inconclusive: 64.2%
O=C(CN1CCN(C(=O)CNC(=O)c2ccc(-c3ccccc3)cc2)CC1)Nc1ccccc1Cl | inconclusive: 94.4%
COc1ccc(-c2ccc3c(c2)[C@H]2[C@H](CCN2C(=O)Cc2cccnc2)[C@@H](CO)N3C)cc1 | inactive: 0.119%
O=C(Nc1nccs1)c1ccc(Cl)c([N+](=O)[O-])c1 | inconclusive: 59.9%
C[C@@H]1CN([C@@H](C)CO)C(=O)c2cc(NC(=O)Cn3cnnn3)ccc2O[C@H]1CN(C)Cc1ccc(Oc2ccccc2)cc1 | active: 47.8%
Cc1cc2cc(CNS(=O)(=O)c3ccccc3)ccc2n1C | inconclusive: 39.9%
CCCC#Cc1ccc2c(c1)O[C@@H](CN(C)CCC)[C@@H](C)CN([C@@H](C)CO)S2(=O)=O | active: 85.1%
CCc1cc2cccc(C)c2nc1SCC(=O)Nc1nonc1C | inconclusive: 38.2%
C[C@H]1CN([C@@H](C)CO)C(=O)Cc2cc(NC(=O)Nc3ccccc3)ccc2O[C@@H]1CN(C)S(=O)(=O)c1ccc(Cl)cc1 | inconclusive: 27.2%
COCC#Cc1cnc2c(c1)C(=O)N([C@H](C)CO)C[C@@H](C)[C@H](CN(C)S(=O)(=O)c1ccccc1)O2 | inactive: 2.96%
Cc1cc2cc(CNC(=O)c3ccc(S(=O)(=O)N4CCCCC4)cc3)ccc2n1C | active: 82.5%
C#CCOCCOCCOCCNc1nc(N2CCOCC2)nc(N2CCN(C(=O)CCCCCCCCCCNC(=O)[C@@H]([C@H](C)CC)n3cc(CCCCCN)nn3)CC2)n1 | inactive: 0.356%
C[C@@H]1CN([C@@H](C)CO)C(=O)c2cc(C#CCN(C)C)cnc2O[C@@H]1CN(C)C(=O)c1ccc2c(c1)OCO2 | inactive: 0.451%
COc1ccc(S(=O)(=O)Nc2ccc3c(c2)CC(=O)N([C@@H](C)CO)C[C@H](C)[C@@H](CN(C)C(=O)NC2CCCCC2)O3)cc1 | active: 79.2%
O=C(COC(=O)/C=C/c1cccc(Br)c1)NCc1ccco1 | inconclusive: 73.9%
C[C@H]1CN([C@@H](C)CO)C(=O)Cc2cc(NC(=O)Nc3ccc(C(F)(F)F)cc3)ccc2O[C@H]1CN(C)C(=O)Nc1cccc2ccccc12 | inconclusive: 131%
CNC(=O)Nc1ccc2snnc2c1 | inconclusive: 39.3%
CCc1nc(N2[C@H](C#N)[C@@H](c3ccccc3-c3ccc(F)cc3)[C@H]2CO)sc1C | inactive: -0.041%
C[C@H](CO)N1C[C@H](C)[C@@H](CN(C)S(=O)(=O)c2cccc(F)c2)Oc2ncc(C#CC3CC3)cc2C1=O | inconclusive: 30.9%
Cc1ccc(S(=O)(=O)Nc2cc(C(C(=O)OC(C)C)C(=O)C(F)(F)F)c(O)c3ccccc23)c(C)c1 (stereo not drawn) | inconclusive: 28.4%

Compound | activation
O=C(C[C@H]1C=C[C@@H](NC(=O)Nc2ccccc2)[C@@H](CO)O1)NCc1cccc(F)c1 | inactive: -0.573%
c1ccc(-c2ccccc2OCCOCCN2CCNCC2)cc1 | active: 38.8%
CCN(CC)c1ccc2nc3ccc(N)cc3[n+](-c3ccccc3)c2c1 | active: 91.8%
Cc1c(C(=O)N(Cc2cccc(Br)c2)C2CCS(=O)(=O)C2)oc2ccc(F)cc12 (stereo not drawn) | inconclusive: 65.1%
c1cc(SSc2ccncc2)ccn1 | inconclusive: 29.3%
COc1ccc(S(=O)(=O)Nc2ccc3c(c2)C(=O)N([C@H](C)CO)C[C@H](C)[C@H](CN(C)S(=O)(=O)c2ccc(Cl)cc2)O3)cc1 | inconclusive: 34.9%
CC(C)NC(=O)N(C)C[C@@H]1Oc2c(NC(=O)CCCCCC(=O)Nc3ccccc3N)cccc2C(=O)N([C@H](C)CO)C[C@H]1C | inactive: -14.9%
COc1ccc(O)c(/C=N/Nc2nc3ccccc3[nH]2)c1 | inconclusive: 29.1%
COc1ccc(S(=O)(=O)Nc2ccc3c(c2)CC(=O)N([C@H](C)CO)C[C@@H](C)[C@H](CN(C)C(=O)NC2CCCCC2)O3)cc1 | active: 48%
Cc1cccc(Nc2c([N+](=O)[O-])ccc3nonc23)c1C | inconclusive: 41.2%
CCCN(C)C[C@H]1Oc2cc(-c3ccccc3F)ccc2S(=O)(=O)N([C@@H](C)CO)C[C@H]1C | inactive: -0.294%
COc1ccc(C(=O)c2cc3cccc(OC)c3o2)cc1 | inconclusive: 49.1%
COc1ccc2ccccc2c1C1NC(=O)c2ccccc2N1 (stereo not drawn) | inconclusive: 45.2%
COc1cc(CCC(=O)OCC(=O)Nc2ccccc2C#N)cc(OC)c1OC | active: 458%
CCOC(=O)c1ccc(Nc2sc(C(=O)c3cccc([N+](=O)[O-])c3)c(N)c2C#N)cc1 | inactive: 0.464%
O=C(Oc1ccccc1)N1CCCC1 | inconclusive: 65.8%
O=C(Nc1cccc(/C=C/c2nc3ccccc3c(=O)[nH]2)c1)c1ccccc1Cl | inconclusive: 33.8%
COC(=O)C[C@H]1CC[C@H]2[C@@H](COc3ccc(NC(=O)C4CC4)cc3C(=O)N2C)O1 | active: 84.9%
Cc1ccc(-n2c(SCC(=O)NCCC3=CCCCC3)nc3n[nH]c(C)c3c2=N)cc1Cl | inconclusive: 32.1%
Clc1nnc(Cl)c2c1ncn2Cc1ccccc1 | inactive: -0.056%
C[C@H]1CN([C@@H](C)CO)C(=O)c2cccc(NC(=O)c3nc4ccccc4s3)c2O[C@@H]1CN(C)C(=O)Nc1ccc(F)cc1 | inconclusive: 0.0015%
CCCCc1cc(-c2n[nH]c(=S)o2)c2ccccc2n1 | inconclusive: 52.7%
Cn1c(NC(=O)c2ccc(F)cc2)c(-c2cccs2)c(=O)c2ccccc21 | inconclusive: 30.2%
Cc1ccc(CC(=O)N2CCC(c3nc4c(nnn4Cc4ccccc4)c(=O)[nH]3)CC2)cc1 | inconclusive: 85.7%
